Over roughly 81,000 sequences, “one-hybrid fitness for binding NBS DNA” has its median near -0.1; the highest 2% begin near 0.36. Some of the results follow.

Here are results for 77 variants from a collection of fitness landscapes (doi:10.1016/j.celrep.2020.107928).

To fix the notation:
B1: Caulobacter ParB omega fusion; a variant is named by its letters at X, in order, B8GW30 (parent)
chain: MESVVVGEPGMSEGRRGLGRGLSALLGEVDAAPAQAPGEQLGGSREAPIEILQRNPDQPRRTFREEDLEDLSNSIREKGVLQPILVRPSPDTAGEYQIVAGERAWRAAQRAGLKTVPIMVRELDDLAVLEIGIIENVQRADLNVLEEALSYKVLMEKFERTQENIAQTIGKSXSHVANXMRLLXLPDEVQSYLVSGELTAXHARAIAAAADPVALAKQIIEGGLSVRETEALARKAPNLSAGKSKGGRPPRVKDTDTQALESDLSSVLGLDVSIDHRGSTGTLTITYATLEQLDDLCNRLTRGI

In the assay the parent is B1. Nature of the assay: one-hybrid fitness for binding NBS DNA (the Noc-binding site; scaled: cognate 1, non-cognate 0); higher = stronger binding. The note with it: with NBS DNA site. In a few lines:
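The reporter was HIS3, with the binding site 19 bp from the promoter, in E. coli USO used for bacterial one-hybrid selection of Caulobacter ParB libraries with four specificity codons randomised. Growth was on M9 lacking histidine, with 0.1 mM IPTG and 5 mM 3-AT, for 48 hours at 37°C. Illumina sequencing covered plasmids before and after selection; three replicate libraries were pooled and variants with under 10 reads dropped. A fitness score is the log change in variant-to-wild-type read ratio, rescaled to the cognate and non-cognate references.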
As for SFVC, the “one-hybrid fitness for binding NBS DNA” value was no more than 0.2.

For the variant WDSC, the “one-hybrid fitness for binding NBS DNA” value is no more than 0.2.

For AMDT, the “one-hybrid fitness for binding NBS DNA” value is no more than 0.2.

With QSYG, the “one-hybrid fitness for binding NBS DNA” value was no more than 0.2.

As to SYII, the “one-hybrid fitness for binding NBS DNA” value is no more than 0.2.

Regarding TAVD, the “one-hybrid fitness for binding NBS DNA” value is no more than 0.2.

As for WQRR, the “one-hybrid fitness for binding NBS DNA” value was 0.21.

Regarding NARL, the “one-hybrid fitness for binding NBS DNA” value is no more than 0.2.

In the case of SFQP, the “one-hybrid fitness for binding NBS DNA” value is no more than 0.2.

Take MSNY: the “one-hybrid fitness for binding NBS DNA” value is no more than 0.2.

On to KTHE, for which the “one-hybrid fitness for binding NBS DNA” value was no more than 0.2.

For KMYS, the “one-hybrid fitness for binding NBS DNA” value was no more than 0.2.

Regarding EANW, the “one-hybrid fitness for binding NBS DNA” value was no more than 0.2.

On to ITHY, for which the “one-hybrid fitness for binding NBS DNA” value is no more than 0.2.

On to YIAE, for which the “one-hybrid fitness for binding NBS DNA” value was no more than 0.2.

For the variant AYTW, the “one-hybrid fitness for binding NBS DNA” value is no more than 0.2.

For FNLV, the “one-hybrid fitness for binding NBS DNA” value was no more than 0.2.

Consider LAKQ, for which the “one-hybrid fitness for binding NBS DNA” value was no more than 0.2.

Take RRPY: the “one-hybrid fitness for binding NBS DNA” value was 0.237.

As to HWKY, the “one-hybrid fitness for binding NBS DNA” value was no more than 0.2.

In the case of HAHF, the “one-hybrid fitness for binding NBS DNA” value is no more than 0.2.

In the case of WYNR, the “one-hybrid fitness for binding NBS DNA” value is no more than 0.2.

As to SHCL, the “one-hybrid fitness for binding NBS DNA” value is no more than 0.2.

For the variant TNNK, the “one-hybrid fitness for binding NBS DNA” value was no more than 0.2.

As for HNLI, the “one-hybrid fitness for binding NBS DNA” value was no more than 0.2.

Regarding VYHC, the “one-hybrid fitness for binding NBS DNA” value was no more than 0.2.

Take AEQT: the “one-hybrid fitness for binding NBS DNA” value was no more than 0.2.

As to LTVA, the “one-hybrid fitness for binding NBS DNA” value was no more than 0.2.

Take ARET: the “one-hybrid fitness for binding NBS DNA” value was no more than 0.2.

Regarding HCKG, the “one-hybrid fitness for binding NBS DNA” value is no more than 0.2.

In the case of MPCR, the “one-hybrid fitness for binding NBS DNA” value is no more than 0.2.

Take FAFT: the “one-hybrid fitness for binding NBS DNA” value was determined as 0.242.

For the variant YFVN, the “one-hybrid fitness for binding NBS DNA” value was no more than 0.2.

In the case of QCMN, the “one-hybrid fitness for binding NBS DNA” value is no more than 0.2.

Take GYLT: the “one-hybrid fitness for binding NBS DNA” value is no more than 0.2.

For the variant RGTD, the “one-hybrid fitness for binding NBS DNA” value is no more than 0.2.

On to LRGM, for which the “one-hybrid fitness for binding NBS DNA” value was no more than 0.2.

As to EDEC, the “one-hybrid fitness for binding NBS DNA” value was no more than 0.2.

As for LITG, the “one-hybrid fitness for binding NBS DNA” value was no more than 0.2.

With STIA, the “one-hybrid fitness for binding NBS DNA” value was no more than 0.2.

Consider NMMY, for which the “one-hybrid fitness for binding NBS DNA” value is no more than 0.2.

As to TTKD, the “one-hybrid fitness for binding NBS DNA” value is no more than 0.2.

For VLSS, the “one-hybrid fitness for binding NBS DNA” value was no more than 0.2.

In the case of VPKG, the “one-hybrid fitness for binding NBS DNA” value was no more than 0.2.

VIET: the “one-hybrid fitness for binding NBS DNA” value is no more than 0.2.

For the variant RRVQ, the “one-hybrid fitness for binding NBS DNA” value is 0.428.

DSEV: the “one-hybrid fitness for binding NBS DNA” value is no more than 0.2.

For the variant VGPW, the “one-hybrid fitness for binding NBS DNA” value was no more than 0.2.

VCQW: the “one-hybrid fitness for binding NBS DNA” value is no more than 0.2.

With TMPV, the “one-hybrid fitness for binding NBS DNA” value is no more than 0.2.

For the variant TIVI, the “one-hybrid fitness for binding NBS DNA” value was no more than 0.2.

As for QAPI, the “one-hybrid fitness for binding NBS DNA” value was no more than 0.2.

Take WCGR: the “one-hybrid fitness for binding NBS DNA” value was no more than 0.2.

As to SPSH, the “one-hybrid fitness for binding NBS DNA” value was no more than 0.2.

Turning to LFHS, the “one-hybrid fitness for binding NBS DNA” value was no more than 0.2.

Consider MNMR, for which the “one-hybrid fitness for binding NBS DNA” value is no more than 0.2.

Regarding AVYM, the “one-hybrid fitness for binding NBS DNA” value was no more than 0.2.

With AWIG, the “one-hybrid fitness for binding NBS DNA” value was no more than 0.2.

As to QKMS, the “one-hybrid fitness for binding NBS DNA” value is 0.414.

With SPPP, the “one-hybrid fitness for binding NBS DNA” value is no more than 0.2.

For CAVC, the “one-hybrid fitness for binding NBS DNA” value is no more than 0.2.

As for TTDN, the “one-hybrid fitness for binding NBS DNA” value was no more than 0.2.

As for QTRI, the “one-hybrid fitness for binding NBS DNA” value was found to be 0.478.

For the variant PYSD, the “one-hybrid fitness for binding NBS DNA” value is no more than 0.2.

On to AQHN, for which the “one-hybrid fitness for binding NBS DNA” value was no more than 0.2.

Turning to QMDK, the “one-hybrid fitness for binding NBS DNA” value was no more than 0.2.

Consider KSVA, for which the “one-hybrid fitness for binding NBS DNA” value is no more than 0.2.

On to WAKC, for which the “one-hybrid fitness for binding NBS DNA” value was no more than 0.2.

Consider LNLW, for which the “one-hybrid fitness for binding NBS DNA” value is no more than 0.2.

PGSG: the “one-hybrid fitness for binding NBS DNA” value was no more than 0.2.

Regarding QPKP, the “one-hybrid fitness for binding NBS DNA” value was no more than 0.2.

With EQVS, the “one-hybrid fitness for binding NBS DNA” value was no more than 0.2.

Take SGAR: the “one-hybrid fitness for binding NBS DNA” value was no more than 0.2.

In the case of SWSM, the “one-hybrid fitness for binding NBS DNA” value was no more than 0.2.

With RKQE, the “one-hybrid fitness for binding NBS DNA” value is no more than 0.2.

Take NWRS: the “one-hybrid fitness for binding NBS DNA” value was no more than 0.2.

Regarding LNCP, the “one-hybrid fitness for binding NBS DNA” value was no more than 0.2.
